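Five concentrations, 48 hours, 96-well plates. The concentration for 50% growth inhibition is given as GI50.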 Active and inactive are the calls of the source. Cut-off read from the data, not from the text of the source: active = GI50 up to about 1.1 µM and inactive = higher.
tested on: NCI-H322M; assay: NCI tumour cell line growth inhibition, 48 h

SMILES	GI50
CC#N.O[C@@H]1CCCC[C@@H]1O.O[C@@H]1CCCC[C@@H]1O.[TeH2]	inactive: 69.5 µM
CC(=O)N1CCc2c([nH]c3ccc(Br)cc23)C1c1ccccc1 (centres undefined)	inactive: > 10 µM
COC1C(=O)CCC2(CO2)C1(O)C1(C)OC1CCC(C)C (centres undefined)	inactive: 44.7 µM
COc1cc(/C=C2\N=C(c3ccccc3)N(c3ccc4c(c3)Sc3cc(N5C(=O)/C(=C/c6cc(OC)c(OC)c(OC)c6)N=C5c5ccccc5)ccc3N4)C2=O)cc(OC)c1OC	inactive: 20.4 µM
Cc1cc(C)c(C2=NO[C@@H]3C(=O)N(c4ccc(Cc5ccc(N6C(=O)[C@H]7C(c8c(C)cc(C)cc8C)=NO[C@H]7C6=O)cc5)cc4)C(=O)[C@H]23)c(C)c1	inactive: > 100 µM
Cc1ccc2[nH]c3c(c2c1)C1CCC(C(C)(C)C)CC1C1C(=O)N(c2ccc(Oc4ccccc4)cc2)C(=O)C31 (centres undefined)	inactive: > 74.3 µM
Nc1n[nH]c2c1Cc1c(n(Cc3ccc(Cl)cc3)c3ccccc13)C(=O)N2	inactive: 13.9 µM
COc1nc(N)c(N=O)c(OCc2ccccc2)n1	inactive: > 10 µM
Cc1ccc(S(=O)(=O)N/N=C2\CC3C4CCC3C2C4)cc1 (centres undefined)	inactive: > 100 µM
N#CC(C#N)=c1c2ccccc2c(=C(C#N)C#N)c2ccccc12	inactive: 16.5 µM
Nc1nc(S)nc(C(=O)Nc2nccs2)c1-c1ccccc1	inactive: > 100 µM
C/C(=N\Nc1nc2cc(Cl)ccc2s1)c1ccccn1	active: 0.641 µM
CNc1ccc2c(c1)Cc1ccccc1-2	inactive: 48.1 µM
c1ccc(CNc2c3c(nc4ccccc24)CCC3)cc1	inactive: 14.2 µM
CC(=O)OC1COC(N2CCc3ccccc32)C(OC(C)=O)C1OC(C)=O (centres undefined)	inactive: > 100 µM
CN(C)c1nncc2[nH]nnc12	inactive: > 100 µM
Cc1ccc(-n2c3nc(=O)n(C)c(=O)c-3nc3ccccc32)c(C)c1	inactive: 10.8 µM
Cc1cc(=O)n2nc(CSc3nnc(N)s3)sc2n1	inactive: > 100 µM
CC[C@]1(Cc2ccc(OC)c(OC)c2)C=[N+]([O-])O[C@H](OC2CCCC2(c2ccccc2)c2ccccc2)[C@@H]1OC(=O)C(C)(C)C (some centres undefined)	inactive: 4.56 µM
CC1(C)C(=O)C(=Cc2ccco2)C1=O	inactive: > 100 µM
NC(CSCc1ccc(I)cc1)C(=O)O (centres undefined)	inactive: 80.4 µM
CC(C)(C)OC(=O)N1C2CCCC23O[C@@H]1c1cc2c(cc1C3=O)OCO2 (some centres undefined)	inactive: 56.5 µM
NC1=NCC(CN2CCCC2)O1 (centres undefined)	inactive: > 100 µM
CC1(C)N=c2c(ncn2CCO)=C(C(N)=O)N1	inactive: > 100 µM

SMILES	GI50
Cc1ccc(Oc2ccc(C(=O)c3cccc(C(=O)c4ccc(Oc5ccc(C)cc5)cc4)n3)cc2)cc1	inactive: > 100 µM
CCCC(=O)c1ccc2c(ccc(=O)n2C)c1	inactive: > 100 µM
CN(C)CCCn1cnc2ncccc2c1=O	inactive: > 100 µM
CCCCCCCCOC(=O)C12Oc3ccc(-c4ccc5c(c4O)C(=O)C4=C(O)CC(C)C(O)C4(C(=O)OCCCCCCCC)O5)c(O)c3C(=O)C1=C(O)CC(C)C2O (centres undefined)	inactive: 56.4 µM
CCN(CC)c1ccc2cc(C(=O)Nc3cccc4ccccc34)c(=N)oc2c1	inactive: > 100 µM
Cc1[nH]c(=O)[nH]c(=O)c1N(CCF)CCCl [FLUORODOPAN]	inactive: 520 µM
O=c1nc(N2CCCC2)nc(N2CCCC2)s1	inactive: > 100 µM
COc1cc(-c2ccc(/N=N/c3ccc4c(S(=O)(=O)O)cc(S(=O)(=O)O)c(N)c4c3O)c(OC)c2)ccc1/N=N/c1ccc2c(S(=O)(=O)O)cc(S(=O)(=O)O)c(N)c2c1O	inactive: > 100 µM
Oc1ccc(/C=C/c2cc(O)cc3c2C(c2cc(O)cc(O)c2)C(c2ccc(O)c(O)c2)O3)cc1 (centres undefined)	inactive: 43.5 µM
CC(C)(C)C#COC(=O)c1ccccc1	inactive: > 100 µM
O=C(CCc1ccc(O)cc1)NCCc1ccc(O)cc1	inactive: > 100 µM
COc1ccc(-c2nnc(CCCCCCCCc3nnc(-c4ccc(OC)cc4)o3)o2)cc1	inactive: > 100 µM
O=C1c2cn[nH]c2N=C(Nc2ccccc2)C1/N=C/c1ccc([N+](=O)[O-])cc1 (centres undefined)	inactive: > 10 µM
O=C(CSc1nc2ccc(I)cc2c(=O)n1Cc1ccccc1)NN1C(=O)CSC1c1ccccc1 (centres undefined)	inactive: 33.4 µM
CC(NC(=O)OC(C)(C)C)C(=O)NC(Cc1ccccc1)C(=O)NCC(=O)ON=C1CCCC1 (centres undefined)	inactive: > 100 µM
CC1NOC(=O)C1/N=N/c1cccc(Cl)c1 (centres undefined)	inactive: 90.4 µM
NC(=S)Nc1ccc2c(c1)oc1ccccc12	inactive: > 100 µM
O=C(CN1C(=O)c2ccccc2C1=O)OCC1CCCN2CCCCC12 (centres undefined)	inactive: > 100 µM
CC(=O)/C(=C/n1c(=S)[nH]c2ccccc21)C(=O)Nc1ccccc1C	inactive: > 100 µM
O=C1NC2OCC(O)C(O)C2O1 (centres undefined)	inactive: > 100 µM
C=C(C)[C@H]1CC(=O)/C(C)=C\CC/C(C)=C/CC[C@@]2(C)O[C@@H]2C1	inactive: 77.1 µM
O=C1CCC(c2ccccc2)=NN1c1nsc2ccccc12	inactive: > 100 µM
COc1cc(C2c3cc4c(cc3C(O)C3CCC(=O)N23)OCO4)cc(OC)c1OC (centres undefined)	inactive: 55.3 µM
C=C(C)C1Cc2cc(C(C)=O)ccc2O1 (centres undefined)	inactive: > 100 µM

SMILES	GI50
O=c1c2c([N+](=O)[O-])cccc2nc2[nH]c3ccccc3n12	inactive: 18.9 µM
CN(C)C=O.O=C(Nc1nnn[nH]1)c1nc(O)cc(-c2ccccc2)n1	inactive: > 100 µM
Cc1cc2c(cc1C)[n+]([O-])c(C(=O)N1CCN(c3ccc([N+](=O)[O-])cc3)CC1)c(C)[n+]2[O-]	inactive: 67.3 µM
O=C(/C=C/c1ccc(-c2ccccc2[N+](=O)[O-])o1)NCc1ccc(C(=O)NCCc2ccccc2)cc1	inactive: > 100 µM
CC(C)(O)/C=C\P(=O)(O)O	inactive: > 100 µM
COC(=O)c1cccc(COc2ccc([N+](=O)[O-])cc2Cl)c1	inactive: > 100 µM
Clc1ccc2oc(CCC3CCCCC3)nc2c1	inactive: 49.5 µM
NNS(=O)(=O)c1cc(C(=O)O)cc(C(=O)O)c1	inactive: > 100 µM
CC1(C)OCC(COC(=O)NCn2cc(-c3ccccc3)nn2)O1 (centres undefined)	inactive: > 100 µM
COc1ccc2c(-c3csc(-c4c[nH]c5ccc(Br)cc45)n3)c[nH]c2c1	inactive: 70.8 µM
COC(=O)C1CC2(CC3=C1CCCC3)OCCO2 (centres undefined)	inactive: > 100 µM
CC(=O)Nc1ccc(-c2nnc(SCC(=O)Nc3ccccc3Cl)o2)cc1	inactive: > 100 µM
CCCCCCCCCCNCCSSCc1ccc(Cl)cc1	inactive: 3.16 µM
OC1(C23CC4CC(CC(C4)C2)C3)CSCC1(O)C12CC3CC(CC(C3)C1)C2 (centres undefined)	inactive: > 100 µM
CN(C)c1ccc(/C=N\NC(=O)c2ccccc2Nc2ccccc2C(=O)N/N=C/c2ccc(N(C)C)cc2)cc1	inactive: > 100 µM
CCOC(=O)CCCc1cc(O)c2c(C)c3[nH]c4ccc(Cl)cc4c3c(C)c2n1	inactive: 49.4 µM
CCOC(=O)C(C)(C)Oc1ccc2c(-c3ccc(Cl)cc3)c(-c3ccc(Cl)cc3)c(=O)oc2c1	inactive: > 100 µM
Cc1ccc(NC(=O)/C(Cc2cc(=O)oc3cc(O)ccc23)=N\NC(=O)C[N+](C)(C)C)cc1C	inactive: > 100 µM
COc1ccc2c(c1)c(CC(=O)O)c(C)n2C(=O)c1ccc(Cl)cc1	inactive: 30.6 µM
Cc1noc(C)c1-n1nc2ccc3nonc3c2n1	inactive: > 100 µM
C/C(=C\C(C[C@](C)(O)C(O)CCC#C[Si](C)(C)C)S(=O)(=O)c1ccccc1)CC/C=C/CO[Si](C)(C)C(C)(C)C (some centres undefined)	inactive: 17.6 µM
Clc1cc(OCC23CC4CC(CC(C4)C2)C3)nc(OCC23CC4CC(CC(C4)C2)C3)n1	inactive: > 100 µM
CC1=C2CC3=C(C)C(=O)O[C@H]3C[C@@H](C)[C@@H]2CC1 [AMERICANOLIDE D]	inactive: > 100 µM
COC(=O)CC1(O)C(=O)OCc2c1cc1n(c2=O)Cc2c-1nc1ccccc1c2OC (centres undefined)	inactive: 2.13 µM

SMILES	GI50
CC1(C)CC2=C(Sc3ccccc3N2)C(=O)C1C(=O)C(=O)Nc1cc(Cl)ccc1Cl (centres undefined)	inactive: > 100 µM
COc1ccc(Nc2nc3cc(C(F)(F)F)ccc3nc2-c2ccccc2)cc1OC	inactive: 58.7 µM
COC1=C(OC)C(O)(c2ccccc2)C1=O (centres undefined)	inactive: > 100 µM
COc1cc(/C=C2/C(=O)N(C(=O)c3ccccc3O)N=C2C)cc(OC)c1OC	inactive: 5.3 µM
COC(=O)[C@H](Cc1ccccc1)NC(=O)c1ccc(CNC(=O)/C=C/c2ccc(-c3ccccc3)cc2)cc1	inactive: > 100 µM
COC(=O)c1c[nH]cc1CCc1c[nH]cc1C(=O)OC	inactive: > 100 µM
O=C1c2ccccc2-c2cccc3ccc(Cc4ccccc4)c1c23	inactive: > 100 µM
O=C(OCc1ccccc1)c1ccc(NCc2cc(O)ccc2O)cc1	inactive: 8.77 µM
CCOC(=O)CO/N=C1/C(=C2/C(=O)Nc3ccccc32)Nc2ccccc21	inactive: 2.96 µM
COc1cccc(C2=NC(C(C)C)CO2)c1OC (centres undefined)	inactive: > 100 µM
O=C(Nc1ccc(Cl)cc1)NS(=O)(=O)c1c(-c2ccccc2)oc2ccccc2c1=O	inactive: > 100 µM
O=C(O)[C@H](NS(=O)(=O)c1ccc(F)cc1)c1ccccc1	inactive: > 100 µM
CC(=O)OC1(C)C(=O)OC1(C)C(C)=O (centres undefined)	inactive: > 100 µM
O=C(O)c1nc(-c2ccccc2)ncc1-c1nnnn1-c1ccccc1	inactive: > 100 µM
CN1C(=O)[C@@]2(C=CC3(CC2)OCCO3)c2ccccc21	inactive: > 50 µM
COC(=O)c1ccc2n1C1CC3CC(CC2C3)C1	inactive: > 100 µM
CN1CCc2cc3c(c4c2C1C(O)c1ccccc1-4)OCO3 (centres undefined)	inactive: 8.39 µM
O=C(O)/C=C/C(=O)Nc1nc[nH]n1	inactive: > 100 µM
COC(=O)CCC(=O)C(CC(=O)OC)C(=O)CCC(=O)NCCc1ccccc1 (centres undefined)	inactive: > 100 µM
O=C(CN1CCOCC1)NC1=Nc2ncccc2C(=O)NN1	inactive: > 10 µM
CC1(C)OC1CC/C(=C/CBr)CBr (centres undefined)	inactive: 19.4 µM
CCN(CC)C(=O)CC12CCCCC1=Nc1ccccc12 (centres undefined)	inactive: > 100 µM

From ChEMBL document CHEMBL1201862, “PubChem BioAssay data set” (2004)
